± gives the standard error. Variants at the floor of the assay are shown more often than the library holds them.
B1: glmS ribozyme (parent)
chain: AUAAAAGCGCCAGAACUACAGAAAUGUAGUUGACGAGGAGGAGGUUUAUCGAAUUUUCGGCGGAUGCCUCCAAA

What was measured:
Settings in all cases: with glucosamine-6-phosphate
glucosamine-6-phosphate [1] = variants of: B1; test: self-cleavage kobs at 640 uM GlcN6P; higher = faster cleavage; RNA array
Method in brief: (§1)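 Tiles of sequenced MiSeq chips were imaged over ~14 h at 37 °C. On them, barcoded ribozyme variants had been transcribed in situ by E. coli RNA polymerase and were tracked via a hybridised Cy3 probe while glucosamine-6-phosphate (40 μM to 10 mM) in HEPES/KCl/Mg(OAc)2 buffer flowed in. Per-tile medians, normalised to baseline and to non-cleaving reference variants, were fit to one- or two-exponential decays for kobs, and weighted Michaelis–Menten fits gave kcat and KM.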

glucosamine-6-phosphate [2] = variants of: B1; test: self-cleavage kobs at 2500 uM GlcN6P; higher = faster cleavage; RNA array
Method in brief: as §1

glucosamine-6-phosphate [3] = variants of: B1; test: self-cleavage kobs at 10000 uM GlcN6P; higher = faster cleavage; RNA array
Method in brief: as §1

glucosamine-6-phosphate [4] = variants of: B1; test: self-cleavage kobs at 160 uM GlcN6P; higher = faster cleavage; RNA array
Method in brief: as §1

Variant	self-cleavage kobs at 640 uM GlcN6P (glucosamine-6-phosphate [1])	self-cleavage kobs at 2500 uM GlcN6P (glucosamine-6-phosphate [2])	self-cleavage kobs at 10000 uM GlcN6P (glucosamine-6-phosphate [3])	self-cleavage kobs at 160 uM GlcN6P (glucosamine-6-phosphate [4])
C58U G63U	< 1e-05 s⁻¹	< 1e-05 s⁻¹	< 1e-05 s⁻¹	
A6U C34A G44A		< 1e-05 s⁻¹		
G9C C50U A52G		< 1e-05 s⁻¹		
G40U G62C C70A	< 1e-05 s⁻¹			
G9A A12U A33C G62U				< 1e-05 s⁻¹
C8G U30G A42C C58U		< 1e-05 s⁻¹		< 1e-05 s⁻¹
U56A C58G G59A G60A	< 1e-05 s⁻¹	< 1e-05 s⁻¹		
C58G G62A	< 1e-05 s⁻¹	< 1e-05 s⁻¹	< 1e-05 s⁻¹	
G9C G35U G63C		< 1e-05 s⁻¹		
C8U U55G C61U C68A		< 1e-05 s⁻¹		
C10G G29A C61G G63U		< 1e-05 s⁻¹		
C10G A39U G44U		< 1e-05 s⁻¹		
G7U G35U G66U U69C				< 1e-05 s⁻¹
G7U C8U G41U U55G		< 1e-05 s⁻¹		
G9A G29C G35A G44U U46A A64C		< 1e-05 s⁻¹		
G43U A52U A64U	< 1e-05 s⁻¹	< 1e-05 s⁻¹		< 1e-05 s⁻¹
C8G C16A G29U A33G A36G		< 1e-05 s⁻¹		
G40U A52G U69G	< 1e-05 s⁻¹			
G9U C10U A33U U47G		< 1e-05 s⁻¹	< 1e-05 s⁻¹	
C8A G35C A64C		< 1e-05 s⁻¹	< 1e-05 s⁻¹	
G59A G63A G66A	< 1e-05 s⁻¹			
G35A C68U		< 1e-05 s⁻¹		< 1e-05 s⁻¹
C58G A64G U65A G66U C67G U69C	9.79e-05 ± 2.9e-05 s⁻¹			
A39C C71G				< 1e-05 s⁻¹
G44C A53G C71U	< 1e-05 s⁻¹			
U65C C67G	5.5e-05 ± 1.4e-05 s⁻¹		6.72e-05 ± 8.1e-06 s⁻¹	

Variant	self-cleavage kobs at 640 uM GlcN6P (glucosamine-6-phosphate [1])	self-cleavage kobs at 2500 uM GlcN6P (glucosamine-6-phosphate [2])	self-cleavage kobs at 10000 uM GlcN6P (glucosamine-6-phosphate [3])	self-cleavage kobs at 160 uM GlcN6P (glucosamine-6-phosphate [4])
G9U U49C			< 1e-05 s⁻¹	< 1e-05 s⁻¹
G7C U31A C71G		< 1e-05 s⁻¹	< 1e-05 s⁻¹	
G43A U57C U69A	< 1e-05 s⁻¹			
G13C G38A		< 1e-05 s⁻¹		< 1e-05 s⁻¹
U45C U54A G62U				< 1e-05 s⁻¹
C8A G60A C68A		< 1e-05 s⁻¹		< 1e-05 s⁻¹
A6C G13U C68U		< 1e-05 s⁻¹		< 1e-05 s⁻¹
G9A G37A G60A		< 1e-05 s⁻¹		
C10A A12U U49A		< 1e-05 s⁻¹	< 1e-05 s⁻¹	
G7A G13A U30C C34U C70U		< 1e-05 s⁻¹		
A12G G63C			< 1e-05 s⁻¹	< 1e-05 s⁻¹
A64U U65G C71U	< 1e-05 s⁻¹	< 1e-05 s⁻¹		
C34G U56C				< 1e-05 s⁻¹
A6G A39C G41C C70U C71G		< 1e-05 s⁻¹		
U47A G63C	< 1e-05 s⁻¹	< 1e-05 s⁻¹		< 1e-05 s⁻¹
G40C A42C A52C				< 1e-05 s⁻¹
A48G U54G	6.14e-05 ± 1.1e-05 s⁻¹	0.000134 ± 2.5e-05 s⁻¹	0.000127 ± 1.2e-05 s⁻¹	
G32U A33C U47G				< 1e-05 s⁻¹
G51U A53U U54A	< 1e-05 s⁻¹		< 1e-05 s⁻¹	
C8G A39G		< 1e-05 s⁻¹	< 1e-05 s⁻¹	< 1e-05 s⁻¹
G13C U65C C70U		< 1e-05 s⁻¹		< 1e-05 s⁻¹
A6U A14C G35A		< 1e-05 s⁻¹		
A48U U54G C70U	0.000139 ± 2.9e-05 s⁻¹	0.000369 ± 9.6e-05 s⁻¹	0.000445 ± 0.00012 s⁻¹	
G38C A39C G40U U57A			< 1e-05 s⁻¹	< 1e-05 s⁻¹
A6C A12G A53U		< 1e-05 s⁻¹		
G7C A14C A53G				< 1e-05 s⁻¹

Variant	self-cleavage kobs at 640 uM GlcN6P (glucosamine-6-phosphate [1])	self-cleavage kobs at 2500 uM GlcN6P (glucosamine-6-phosphate [2])	self-cleavage kobs at 10000 uM GlcN6P (glucosamine-6-phosphate [3])	self-cleavage kobs at 160 uM GlcN6P (glucosamine-6-phosphate [4])
C8U G13U G43A C61G				< 1e-05 s⁻¹
A6G C16G G40U A64U		< 1e-05 s⁻¹		
A48G C58A G62A	< 1e-05 s⁻¹	< 1e-05 s⁻¹		
U55A G59A G60C		< 1e-05 s⁻¹	< 1e-05 s⁻¹	< 1e-05 s⁻¹
A15U G38C				< 1e-05 s⁻¹
U46C C58U C67A				< 1e-05 s⁻¹
C8U C10U A12C G32A C61U G63A C67G C71G		< 1e-05 s⁻¹		< 1e-05 s⁻¹
C58U C61A	0.000108 ± 3.4e-05 s⁻¹	7.93e-05 ± 1.5e-05 s⁻¹		6.42e-05 ± 1.7e-05 s⁻¹
A6U G44U G63C		< 1e-05 s⁻¹		
A52U C67A	6.53e-05 ± 8.3e-06 s⁻¹	0.000124 ± 1.6e-05 s⁻¹	0.000183 ± 2.1e-05 s⁻¹	
A6G C10G A36G U47C		< 1e-05 s⁻¹	< 1e-05 s⁻¹	
G9C A48G C67U		< 1e-05 s⁻¹		
C10G A36G A52U		< 1e-05 s⁻¹		
C10U A33U G38C U69A		< 1e-05 s⁻¹		< 1e-05 s⁻¹
U49G U65C	< 1e-05 s⁻¹			
G9C G60U U65G		< 1e-05 s⁻¹		
C10A U31A U45G		< 1e-05 s⁻¹		
A6C A39G		5.42e-05 ± 1.9e-05 s⁻¹	6.11e-05 ± 1.4e-05 s⁻¹	
C10A C34U G43C U56C A64C		< 1e-05 s⁻¹		< 1e-05 s⁻¹
A42U U49C		< 1e-05 s⁻¹	< 1e-05 s⁻¹	< 1e-05 s⁻¹
C50A C67U C68U	6.87e-05 ± 2.8e-05 s⁻¹	0.000153 ± 6.2e-05 s⁻¹		6.13e-05 ± 3.1e-05 s⁻¹
U47A C58G	4.54e-05 ± 1.7e-05 s⁻¹	7.52e-05 ± 1.2e-05 s⁻¹	0.000117 ± 1.5e-05 s⁻¹	
G9C C10A C11U C34U A48C C58G		< 1e-05 s⁻¹		
C61A C67U	6.41e-05 ± 1.4e-05 s⁻¹	4.8e-05 ± 9.3e-06 s⁻¹		2.79e-05 ± 1.1e-05 s⁻¹
G7A A42U		< 1e-05 s⁻¹	< 1e-05 s⁻¹	
A6G C16G U54C C61A		< 1e-05 s⁻¹		

Variant	self-cleavage kobs at 640 uM GlcN6P (glucosamine-6-phosphate [1])	self-cleavage kobs at 2500 uM GlcN6P (glucosamine-6-phosphate [2])	self-cleavage kobs at 10000 uM GlcN6P (glucosamine-6-phosphate [3])	self-cleavage kobs at 160 uM GlcN6P (glucosamine-6-phosphate [4])
G41U U45G U47A C71U	5.62e-05 ± 2.2e-05 s⁻¹			
G29U A42U A48U G62A		< 1e-05 s⁻¹		< 1e-05 s⁻¹
C8U A12U U30G A33U C61G				< 1e-05 s⁻¹
A48U U49A C68A	< 1e-05 s⁻¹			
G37C U45G U57A G60A		< 1e-05 s⁻¹		< 1e-05 s⁻¹
A15G A42C				< 1e-05 s⁻¹
A33C U49C U54A C68U			< 1e-05 s⁻¹	< 1e-05 s⁻¹
C34A U57G				< 1e-05 s⁻¹
A15U U31G G62U		< 1e-05 s⁻¹		< 1e-05 s⁻¹
A52C U57A				< 1e-05 s⁻¹
C8U C10A A15C		< 1e-05 s⁻¹		
C10A G35U C58A		< 1e-05 s⁻¹		
C8G G32A A33U U45A U57C C58A		< 1e-05 s⁻¹		
C8G U31A		< 1e-05 s⁻¹	< 1e-05 s⁻¹	< 1e-05 s⁻¹
C8U A33G A48U U49G C50U		< 1e-05 s⁻¹		
G7C A36G G37C U56A G66A		< 1e-05 s⁻¹		
A6G C16U G60U G66U				< 1e-05 s⁻¹
C8U U46G G63U		< 1e-05 s⁻¹		
G7U A14G A33C		< 1e-05 s⁻¹		
G32U G43U		< 1e-05 s⁻¹		< 1e-05 s⁻¹
G44C U56A				< 1e-05 s⁻¹
C11U C16U G51C C70U		< 1e-05 s⁻¹		< 1e-05 s⁻¹
A6C A14G G37A G60C		< 1e-05 s⁻¹		
A48U C67G C70U	< 1e-05 s⁻¹			
A14C C34G		< 1e-05 s⁻¹	< 1e-05 s⁻¹	< 1e-05 s⁻¹
U45A U46C U47G C70U	0.000175 ± 8.3e-05 s⁻¹			

Variant	self-cleavage kobs at 640 uM GlcN6P (glucosamine-6-phosphate [1])	self-cleavage kobs at 2500 uM GlcN6P (glucosamine-6-phosphate [2])	self-cleavage kobs at 10000 uM GlcN6P (glucosamine-6-phosphate [3])	self-cleavage kobs at 160 uM GlcN6P (glucosamine-6-phosphate [4])
G7A A14U G35U G44U A48C A53G C70U				< 1e-05 s⁻¹
G41A G51C G63A C67A	< 1e-05 s⁻¹			
G43C G63C	< 1e-05 s⁻¹	< 1e-05 s⁻¹		< 1e-05 s⁻¹
G59U C71U				< 1e-05 s⁻¹
G43U G44A C61G A64U	< 1e-05 s⁻¹	< 1e-05 s⁻¹		
C58G U65A				< 1e-05 s⁻¹
G44C C50G	< 1e-05 s⁻¹	< 1e-05 s⁻¹	< 1e-05 s⁻¹	< 1e-05 s⁻¹
A42U U47G G63A G66U	< 1e-05 s⁻¹			
A33U A42C C50U		< 1e-05 s⁻¹		< 1e-05 s⁻¹
G7C G32U U45C U49C		< 1e-05 s⁻¹		
A6G G13U G37A A53C		< 1e-05 s⁻¹		
U49G G62C C70U	< 1e-05 s⁻¹			< 1e-05 s⁻¹
C16G G41C G59A				< 1e-05 s⁻¹
G9U U31G G38A		< 1e-05 s⁻¹		
U57C G63C	< 1e-05 s⁻¹	< 1e-05 s⁻¹	< 1e-05 s⁻¹	< 1e-05 s⁻¹
U47C G51U C71G	< 1e-05 s⁻¹			
A53G U54A G63U	< 1e-05 s⁻¹	< 1e-05 s⁻¹		
C34G G38U G44C U49C				< 1e-05 s⁻¹
A14C U45A U57A				< 1e-05 s⁻¹
A12U C61A G63C C70U		4.79e-05 ± 1.7e-05 s⁻¹		3.45e-05 ± 1.3e-05 s⁻¹
C10U U47G				< 1e-05 s⁻¹
G9C G40U U54A G62C G63U		< 1e-05 s⁻¹		
A6C G35A U47C G60U		< 1e-05 s⁻¹		
U49G U55G	0.000247 ± 5e-05 s⁻¹	0.000582 ± 6.3e-05 s⁻¹	0.000687 ± 9.4e-05 s⁻¹	8.7e-05 ± 1.8e-05 s⁻¹
U57G G62C A64U		< 1e-05 s⁻¹	< 1e-05 s⁻¹	< 1e-05 s⁻¹

Source: the supplement of paper PMC7125110
